This is an account of results in US20240391990A1 (PULMONGENE HONG KONG, published 2024).

For assay [1], the target named is T1, recombinant human AREG (human, UniProt P15514 101-198).
T1 sequence (looked up): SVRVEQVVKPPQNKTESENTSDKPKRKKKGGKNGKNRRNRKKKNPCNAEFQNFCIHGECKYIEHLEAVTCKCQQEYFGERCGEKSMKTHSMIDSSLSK
The assay is described as follows: cell-based or functional assay.

Assay [2] concerns the target T1, recombinant human AREG. The assay is described as follows: SPR, Biacore T200, variant captured on Protein A/G CM5 chip, ligand injected. In general terms: SPR reads the build-up and loss of mass on a sensor chip optically.
Assay [3] concerns the target recombinant human TGFβ1 (human, UniProt P01137 in part). Described as above.
Sequence of UniProt P01137 (P01137 279-390 limits assumed): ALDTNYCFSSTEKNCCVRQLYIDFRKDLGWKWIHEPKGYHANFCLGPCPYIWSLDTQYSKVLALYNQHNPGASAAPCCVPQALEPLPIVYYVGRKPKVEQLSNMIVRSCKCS
The target of assay [4] is T2, TGFβ2 (UniProt P61812 303-414, limits assumed).
T2 sequence (looked up): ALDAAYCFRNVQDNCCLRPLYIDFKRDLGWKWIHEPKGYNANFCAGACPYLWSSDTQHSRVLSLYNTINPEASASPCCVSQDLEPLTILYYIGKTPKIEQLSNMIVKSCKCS
The description is as above.

B1: anti-AREG/TRII bi-functional fusion protein variant 030 (other)
heavy: EVQLVESGGGLVKPGGSLRLSCAASGFTFSSYAMSWVRQAPGKGLEWVSTISTGGSHTYYPESVKGRFTISRDNAKNSLYLQMNSLRAEDTAVYYCARHGYLLYEGYYEWYFDYWGQGTLVTVSSASTKGPSVFPLAPCSRSTSESTAALGCLVKDYFPEPVTVSWNSGALTSGVHTFPAVLQSSGLYSLSSVVTVPSSSLGTKTYTCNVDHKPSNTKVDKRV[omitted - human IgG4 Fc with S228P (EU numbers)]AGGGGSGGGGSGGGGSGGGGSGNNGAVKFPQLCKFCDVRFSTCDNQKSCMSNCSITSICEKPQEVCVAVWRKNDENITLETVCHDPKLPYHDFILEDAASPKCIMKEKKKPGETFFMCSCSSDECNDNIIFSEEYNTSNPD
VL: DIVMTQSPDSLAVSLGERATINCKSSQSVDYEGHSFLNWYQQKPGQPPKLLIYAASNRESGVPDRFSGSGSGTDFTLTISSLQAEDVAVYYCQQSTENPPYTFGQGTKLEIK
notes: also called 17-residue deletion
Regarding B1, the “IC50 (read off the curve), SRE-luciferase reporter induced by AREG 50 nM” value in assay [1] was around 4 nM. The dissociation constant (Kd) in assay [2] came out at 0.0359 nM; in assay [3], 0.000718 nM; in assay [4], 6.71 nM. The values for the koff in assay [2], in assay [3] and in assay [4] were 0.000614 s⁻¹, 5.94e-05 s⁻¹ and 0.901 s⁻¹, respectively. The figures for the kon in assay [2], in assay [3] and in assay [4] were 1.7e+07 M⁻¹ s⁻¹, 8.28e+07 M⁻¹ s⁻¹ and 1.34e+08 M⁻¹ s⁻¹, respectively.

B2: anti-AREG/TRII bi-functional fusion protein variant 010 (other)
heavy: EVQLVESGGGLVKPGGSLRLSCAASGFTFSSYAMSWVRQAPGKGLEWVSTISTGGSHTYYPESVKGRFTISRDNAKNSLYLQMNSLRAEDTAVYYCARHGYLLYEGYYEWYFDYWGQGTLVTVSSASTKGPSVFPLAPCSRSTSESTAALGCLVKDYFPEPVTVSWNSGALTSGVHTFPAVLQSSGLYSLSSVVTVPSSSLGTKTYTCNVDHKPSNTKVDKRV[omitted - human IgG4 Fc with S228P (EU numbers)]AGGGGSGGGGSGGGGSGGGGSGIPPHVQKSVNNDMIVTDNNGAVKFPQLCKFCDVRFSTCDNQKSCMSNCSITSICEKPQEVCVAVWRKNDENITLETVCHDPKLPYHDFILEDAASPKCIMKEKKKPGETFFMCSCSSDECNDNIIFSEEYNTSNPD
VL: B1 VL
notes: Anti-AREG antibody whose heavy chain C-terminus is fused through (G4S)4G to the TRII ectodomain; Produced in 293-F cells; also called anti-AREG/TRII variant 010
In the case of B2, the dissociation constant (Kd) was 0.0356 nM in assay [2], 0.000746 nM in assay [3] and 0.65 nM in assay [4]. For the same molecule, the koff in assay [2] turned out to be 0.000687 s⁻¹; in assay [3], 3.5e-05 s⁻¹; in assay [4], 0.0124 s⁻¹. Also, the results for the kon in assay [2], in assay [3] and in assay [4] were 1.93e+07 M⁻¹ s⁻¹, 4.69e+07 M⁻¹ s⁻¹ and 1.91e+07 M⁻¹ s⁻¹, respectively.

Broadly, the Kd is a measure of binding affinity in units of concentration. A word on the koff: it is the first-order rate constant of dissociation. In general, kon refers to the rate constant with which the complex forms.
